Experimental data as given in PubChem BioAssay AID1347073 (National Center for Advancing Translational Sciences (NCATS), 2019).
In all, about 45,000 compounds went through this assay and about 200 (0.44%) were called active. About 7% were inconclusive and are not listed. Calls follow the shape of the dose curve; as a rule, active = well fitted activation curve with a large enough effect; inconclusive = small, poorly fitted or top-dose-only effect; inactive = no such curve, though single readings can be large or run the other way. This is one part of the list.

assay: qHTS of TDP-43 Inhibitors: NCGC Sytravon Library Screen; details: yeast TDP-43 toxicity rescue, BacTiter-Glo growth, 24 h; series mostly up to 46.1 µM; growth rescue (activation): at the top concentration; also: 0% is about no effect; nearly all actives have a fitted effect of over 55% in size
Procedure, shortened: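 TDP-43-expressing yeast, pregrown in raffinose, seeded at OD600 0.02 in galactose medium with compound for 24 hr at 30 deg C. Growth read by BacTiter-Glo luminescence, so rescue of toxicity appears as activation.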

Compound	growth rescue (activation)
O=C(O)COc1ccccc1/C=N/NC(=O)CSc1nc2ccccc2c(=O)n1-c1ccccc1	inactive: 1.7%
CCOC1=C/C(=C/c2c(N)n3nc(-c4ccccc4)sc3nc2=O)C=CC1=O	inactive: -14.6%
O=C(Nc1ccc(F)cc1)c1ccc(=O)[nH]n1	inactive: 2.99%
CCOC(=O)CNC(=O)CSc1nc2c(C)cccc2cc1CC	inactive: -11.2%
Cc1cccc(C(=O)N[C@H](C(=O)NCCc2ccc(S(N)(=O)=O)cc2)C(C)C)c1	inactive: 19.2%
Cn1c(CNC(=O)c2ccc3c(c2)OCO3)nnc1SCC(=O)Nc1ccc(F)cc1F	inactive: -7.51%
CC(/C=N/NC(=O)CSc1nc2ccccc2n1C)=C\c1ccco1	inactive: 16.6%
Cc1nc2ccc(S(=O)(=O)NCC(=O)N3CCC(C)CC3)cc2s1	inactive: -16.8%
CC(=O)c1c(C(C)=O)c(C)n(-c2ccc(C(=O)O)cc2)c1C	inactive: -39.6%
O=C(COC(=O)c1cccc(S(=O)(=O)N2CCCCC2)c1)NC1CCCc2ccccc21 (stereo not given)	inactive: 10.8%
C=CCNC(=O)COC(=O)CCC(=O)c1cccs1	inactive: 1.85%
COc1ccc(NC(=O)C(=O)N/N=C/c2cccnc2)cc1	inactive: -4.96%
CNC(=O)NC(=O)CSc1ccc(S(=O)(=O)N(C)C2CCCCC2)cn1	inactive: 11.2%
CCOC(=O)NC(=S)Nc1cccc(NC(=S)NC(=O)OCC)c1	inactive: 4.92%
COc1ccc(OC)c(NC(=O)c2cccc(S(=O)(=O)N(Cc3ccccc3)c3ccccc3OC)c2)c1	inactive: -21.8%
CS(=O)(=O)N1CCC(C(=O)Nc2cccc(Cl)c2Cl)CC1	inactive: 3.1%
O=C(CSc1cn[nH]n1)Nc1cccc(C(=O)O)c1	inactive: 12.4%
C1=CC2CC1CC2CN1CCN(Cc2ccccc2)CC1 (stereo not given)	inactive: -41.5%
O=C(CSc1ncnc2sc3c(c12)CCC3)Nc1ccccc1C(=O)O	inactive: 1.51%
O=c1[nH]ncc(N/N=C\c2cccs2)c1Cl	inactive: 6.77%
CSCCC(NC(=O)c1ccccc1)C(=O)NCCc1ccc2c(c1)OCCO2 (stereo not given)	inactive: -16.5%
CC1CCN(C(=O)CCc2nnc(-c3ccccc3)o2)CC1	inactive: -6.47%
COc1ccc(C/C(C)=N/NC(=O)c2cc(C)oc2C)cc1	inactive: -23.9%
c1ccc(-c2nnc(SCC3CCCO3)nc2-c2ccccc2)cc1 (stereo not given)	inactive: 1.51%
c1ccc2c(c1)oc1c(-c3ccc4nccn4c3)cccc12	inactive: 17%
CCOC(=O)c1c(NC(=O)CN2C(=O)NC(C)(c3ccc(Cl)cc3)C2=O)sc(C(=O)NC)c1C (stereo not given)	inactive: 9.96%
COC(=O)CN(c1ccc(C)cc1)S(=O)(=O)c1ccc(F)cc1	inactive: 26.5%
COc1ccc(OC2(C)CCN(Cc3ccccc3OC(F)F)C2)cc1 (stereo not given)	inactive: 5.95%

Compound	growth rescue (activation)
COc1ccccc1NC(=O)CSc1n[nH]c(-c2ccco2)n1	inactive: 3.3%
O=c1oc2ccccc2c(Nc2cc3ccccc3cc2O)c1[N+](=O)[O-]	inactive: -1.04%
COc1ccc(C2CC(c3ccccc3)=NN2C(=O)COC(=O)c2cc(S(=O)(=O)N3CCOCC3)ccc2F)cc1 (stereo not given)	inactive: -12.4%
COc1ccc(S(=O)(=O)N(C)c2ccc(C(=O)NC3CCCC3)cc2)cc1	inactive: 16.2%
CSc1ccc(/C=C(/NC(=O)c2ccccc2)C(=O)NCCCn2ccnc2)cc1	inactive: 6.32%
Cc1c(Cl)cccc1-n1nnc(-c2nc(-c3ccc4c(c3)OCO4)no2)c1C	inactive: 8.91%
COc1ccc(NC(=O)c2cc(-c3ccc(OC)c(OC)c3)nc3ccccc23)c(OC)c1	inactive: 15.3%
COc1ccc(OC)c(NC(=O)COC(=O)c2nc(Cl)ccc2Cl)c1	inactive: 32.6%
C=CCN(C)NC(=S)Nc1ccccc1	inactive: 27%
CCCSc1ncc(Cl)c(C(=O)Nc2sc3c(c2C(N)=O)CCCC3)n1	inactive: 8.56%
Cc1ccc(N(CC(=O)NC(C)C)C(=O)CCC(=O)Nc2nccs2)cc1C	inactive: -4%
CCc1nc2c(OCc3ccc(C(F)(F)F)cc3)cccn2c1N(C)C(=O)c1ccc(C)cc1	inactive: 25%
CCc1ccccc1N(CC(=O)NCc1ccccc1)C(=O)CCC(=O)Nc1ccccn1	inactive: -6.4%
Cc1ccc2c(c1)C(=NC1CCCCC1)c1cc3ccccc3nc1-2	inactive: -6.37%
CCCCNC(=O)C1(C)CCCCN1C(=O)c1cccs1 (stereo not given)	inactive: 5.92%
COc1ccccc1NC(=S)N(c1ccccc1)C(C)C	inactive: 12.3%
Cc1nn(C)cc1C(C)Nc1nc2nonc2nc1N1CCCCC1 (stereo not given)	inactive: 10.4%
CSc1ccccc1NC(=O)CSc1nncs1	inactive: 4.15%
CCOc1ccc(/C=N/NC(=O)c2ccccc2NC(=O)c2ccc(OC)cc2)cc1	inactive: -17.5%
CCOC(=O)C1=NNC(C(=O)c2ccccc2)C1c1ccc(Cl)cc1 (stereo not given)	inactive: 19.8%
Cc1csc(SCC(=O)Nc2nncs2)n1	inactive: 0.469%
Cc1cc2n(n1)CCCN2C(=O)Nc1ccc(C)c(Cl)c1	inactive: 16.7%
CN(c1ccccc1)S(=O)(=O)c1nnc(NC(=O)c2cccs2)s1	inactive: -8.62%
CC(C)N(C(=O)CSc1ncnc2sc(-c3ccccc3)cc12)C(C)C	inactive: 10.8%
Cn1c(=O)c2c(ncn2CC(=O)OCC(=O)Nc2ccc(Cl)cc2Cl)n(C)c1=O	inactive: 9.43%
O=C(Cc1cccs1)Nc1nnc(C2CC2)s1	inactive: -2.4%
O=C(c1cc(-c2cccc(Cl)c2)on1)N1CCCCCC1	inactive: 33.8%
